Data on two molecules can be found in US20230357425A1 (HARBOUR BIOMED SHANGHAI, published 2023).

Numbering of substitutions follows the chain as printed. Names and notes keep the numbering of the source.

The target of the assay is T1, Cynomolgus monkey CD73 on HEK293-cynoCD73 stable cell line (cynomolgus monkey).
T1 construct: whole, on cells
As to the kind of experiment: flow cytometry on HEK293-cynoCD73 stable cells.

B1: PR000846 (antibody, human IgG1, kappa)
heavy: QVQLVESGGGVAQPGRSLSLSCAASGFTFSDYGMHWVRQAPGKGLEWVALIWYDASFEYYADSVKGRFSISRDNSKNTLYLQMNSLRAEDTAVYYCVRDAQWGSRLDYWGQGTLVTVSSASTKGPSVFPLAPSSKSTSGGTAALGCLVKDYFPEPVTVSWNSGALTSGVHTFPAVLQSSGLYSLSSVVTVPSSSLGTQTYICNVNHKPSNTKVDKKV[human IgG1 Fc with changes skipped]
light: KIVMTQSPATLSLSPGERATLSCRASQSVSRYLAWYQQKPGQAPRLLIYDASNRATGIPARFSGSGSGTDFTLTISSLEPEDFAVYYCQQRSNWIFTFGPGTKVDIKRTVAAPSVFIFPPSDEQLKSGTASVVCLLNNFYPREAKVQWKVDNALQSGNSQESVTEQDSKDSTYSLSSTLTLSKADYEKHKVYACEVTHQGLSSPVTKSFNRGEC
notes: PTM-removal variant of PR000506 (heavy chain G55A, G100A)
Molecule B1 registered a concentration for a half-maximal effect (EC50) of 0.307 nM.

B2: PR000850 (antibody, human IgG1, kappa)
heavy: QVQLVESGGGVAQPGRSLSLSCAASGFTFSDYGMHWVRQAPGKGLEWVALIWYDASFEYYADSVKGRFSISRDNSKNTLYLQMNSLRAEDTAVYYCVRDAQWGSRLDYWGQGTLVTVSSASTKGPSVFPLAPSSKSTSGGTAALGCLVKDYFPEPVTVSWNSGALTSGVHTFPAVLQSSGLYSLSSVVTVPSSSLGTQTYICNVNHKPSNTKVDKKV[human IgG1 Fc with changes skipped]
light: B1 light with K1E, M4L
notes: PTM-removal variant of PR000851 (heavy chain G55A, G100A)
Take B2: the midpoint of the response, the EC50, lay at 0.347 nM.
